Data reported in the supplement of paper PMC11417369.
The other results are listed elsewhere or left out.

System: PF3D7_0420300 AP2 domain 1 (GST-tagged)
Assay: gcPBM binding intensity (ln(normalized median fluorescence intensity)); higher = stronger DNA binding
Method in brief: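 For binding intensity, the highest Masliner-normalised natural-log median intensity across replicate spots of either probe orientation was taken. Protein bound to the array was stained with Alexa488 anti-GST antibody and scanned at 488 nm. The protein, GST-tagged P. falciparum DNA-binding domains from E. coli at about 25 μg on average, had been applied for 1 h to an Agilent 4 × 180k array of primer-extended double-stranded 36-bp intergenic genomic probes and negative controls.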

Q: How did the “gcPBM binding intensity (ln)” value turn out when “TAAATGTCCTTATTTGCACACACACCCATAAGAAAT [CACACA_site3185]” was run?
A: The value was 9.83.

Q: For “ATGTAATGAAACATTGCACACATATAATAATATAAT [CACACA_site8402]”, which “gcPBM binding intensity (ln)” value is on record?
A: The value was 9.54.

Q: Which “gcPBM binding intensity (ln)” value does the source give for “TATATATAAAAATATACACACACAAATGTATATATA [CACACA_site7956]” here?
A: The value was 9.54.

Q: How did the “gcPBM binding intensity (ln)” value turn out when “TTTTTATATGCGTATTGTACATTATACATATATATA [XGTACX_site6786]” was run?
A: Its value is 9.23.

Q: How did the “gcPBM binding intensity (ln)” value turn out when “CGTATATATAAATACACACACATATATATCTGTAAA [CACACA_site4272]” was run?
A: Its value is 9.66.

Q: For “TTAATTTATTTATGCACACATATATAATTACCCATA [CACACA_site682]”, which “gcPBM binding intensity (ln)” value is on record?
A: Its value is 9.33.

Q: Which “gcPBM binding intensity (ln)” value does the source give for “AATTAAATTACTTATACACACATAAAATGGGTGTAT [CACACA_site4703]” here?
A: The value was 9.35.

Q: Which “gcPBM binding intensity (ln)” value does the source give for “AAAAAAAAAAAAAAGCGTACAAATAAAATATATTTA [XGTACX_site7195]” here?
A: The value was 9.28.

Q: Which “gcPBM binding intensity (ln)” value does the source give for “TCTTTCAATATTAATGCATGTTAATAATAAATTTTA [TGCATGCA_site448]” here?
A: Its value is 8.87.

Q: “ATATGTTTTTTTTTTTTTTTTTAATTTGTCATAAAT [CACACA_negctrl_site1208]” was tested. Which “gcPBM binding intensity (ln)” value did it give?
A: The value was 9.28.

Q: With “TGAACAATATATAATAGTACATATTTATTTTTTTCT [XGTACX_site4256]” as the sequence, how does the “gcPBM binding intensity (ln)” value read?
A: Its value is 9.13.

Q: With “TAAAGATGAAATATCACACATATATAAATATATAAA [CACACA_site4580]” as the sequence, how does the “gcPBM binding intensity (ln)” value read?
A: Its value is 9.24.

Q: “ATATAAATAAATATATGTACACACACAAATATATAC [XGTACX_site3950]” was tested. Which “gcPBM binding intensity (ln)” value did it give?
A: Its value is 9.91.

Q: How did the “gcPBM binding intensity (ln)” value turn out when “TCTTTCTTATTTTAATGATATTTATTCATTCCAGTT [CACACA_negctrl_site1679]” was run?
A: Its value is 9.28.

Q: With “AGAATTATTCTAAAAACACACAATACAAAAGTGCAT [CACACA_site3004]” as the sequence, how does the “gcPBM binding intensity (ln)” value read?
A: The value was 9.53.

Q: For ACTTTTACACTTTGATTGCACTACTAAACCAGTTCA, which “gcPBM binding intensity (ln)” value is on record?
A: The value was 9.4.

Q: Which “gcPBM binding intensity (ln)” value does the source give for “AATACTAAAACCCATACACACACATATATATAGTAC [CACACA_site9041]” here?
A: The value was 10.1.

Q: With “AAAAAACACGCGCACACACACACACGCGCCCACATA [CACACA_site7106]” as the sequence, how does the “gcPBM binding intensity (ln)” value read?
A: The value was 10.3.

Q: With “ATAAAAAAAAATATTTGTACACATATTTATATATTA [XGTACX_site8147]” as the sequence, how does the “gcPBM binding intensity (ln)” value read?
A: The value was 9.08.

Q: “AATATTTTTTTTTAAACATGCATATTTGCATTACCC [TGCATGCA_site437]” was tested. Which “gcPBM binding intensity (ln)” value did it give?
A: The value was 8.98.

Q: How did the “gcPBM binding intensity (ln)” value turn out when “TTTACATTTATGTGCACACATTCCATTTGAAAGTAA [CACACA_site1953]” was run?
A: Its value is 9.28.

Q: “CTTATAAAAAAAATTGCACACATATTATACAGGACG [CACACA_site8133]” was tested. Which “gcPBM binding intensity (ln)” value did it give?
A: The value was 9.73.

Q: For “ATAACTTTCTATACATGTACACATATATGGTATTTT [XGTACX_site7535]”, which “gcPBM binding intensity (ln)” value is on record?
A: The value was 9.57.

Q: Which “gcPBM binding intensity (ln)” value does the source give for “ATAAATTTTTTATGAACACACAAATACACCCACTCA [CACACA_site5465]” here?
A: The value was 9.73.

Q: How did the “gcPBM binding intensity (ln)” value turn out when “TGTATATATTTTAATAGTACTCATATATATATATAT [XGTACX_site7216]” was run?
A: The value was 9.23.
